Results reported in the supplement of paper PMC4967469.
By IC50 is meant the dose at which the fit gives 50% viability; a limit (>, <) means that the fit lies beyond the doses tested. AUC, from the same fit, is the share of area under the viability curve across the 256-fold dose range; the more sensitive the line, the further below 1. A top dose marked as inferred comes from the curve model; the source does not state it. Drugs with an entry number were screened twice under separate entries, and the two screens often disagree.

compound: NC(=O)[C@@H](CCC(F)(F)F)N(Cc1ccc(-c2ncon2)cc1F)S(=O)(=O)c1ccc(Cl)cc1 [BMS-708163]; assay: Viability of human cancer cell lines after 72 h of drug (GDSC screen); details: screen: GDSC drug entry 205; top dose inferred
Protocol: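 Human cancer cell lines in 384-well plates, medium with 10% serum, drug for 72 h over a 256-fold dose range (nine 2-fold or five 4-fold steps up to the top dose). Adherent lines were fixed and stained with the nucleic acid dye Syto60, suspension lines read with resazurin; signal relative to control wells, capped at 0 and 100%. One two-parameter sigmoid per drug and line, fitted in a mixed model over all curves with the slope shared within a line.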

| Cell Line | AUC | IC50 [µM] |
| --- | --- | --- |
| NCI-H727 (lung carcinoid, adherent, top dose 10.24 µM) | 0.974 | > 10.2 |
| CAPAN-1 (pancreas, adherent, top dose 10.24 µM) | 0.987 | > 10.2 |
| EKVX (lung adenocarcinoma, adherent, top dose 2.56 µM) | 0.97 | > 2.56 |
| SK-MG-1 (glioma, adherent, top dose 10.24 µM) | 0.986 | > 10.2 |
| A172 (glioma, adherent, top dose 10.24 µM) | 0.985 | > 10.2 |
| DND-41 (T-cell leukaemia, suspension, top dose 10.24 µM) | 0.962 | > 10.2 |
| ES5 (Ewing sarcoma, adherent, top dose 10.24 µM) | 0.982 | > 10.2 |
| MDA-MB-453 (breast, adherent, top dose 2.56 µM) | 0.983 | > 2.56 |
| NTERA-2 cl.D1 (testis, adherent, top dose 10.24 µM) | 0.985 | > 10.2 |
| JHH-2 (liver, adherent, top dose 10.24 µM) | 0.986 | > 10.2 |
| HARA (lung squamous cell carcinoma, adherent, top dose 10.24 µM) | 0.966 | > 10.2 |
| NU-DUL-1 (B-cell lymphoma, suspension, top dose 10.24 µM) | 0.988 | > 10.2 |
| HCC-78 (lung adenocarcinoma, adherent, top dose 10.24 µM) | 0.982 | > 10.2 |
| CESS (acute myeloid leukaemia, suspension, top dose 10.24 µM) | 0.975 | > 10.2 |
| HT-144 (melanoma, adherent, top dose 10.24 µM) | 0.983 | > 10.2 |
| HCC-15 (lung squamous cell carcinoma, adherent, top dose 10.24 µM) | 0.98 | > 10.2 |

| Cell Line | AUC | IC50 [µM] |
| --- | --- | --- |
| TT (thyroid, adherent, top dose 10.24 µM) | 0.983 | > 10.2 |
| EPLC-272H (lung squamous cell carcinoma, adherent, top dose 10.24 µM) | 0.976 | > 10.2 |
| NCI-H647 (non-small cell lung carcinoma, adherent, top dose 10.24 µM) | 0.98 | > 10.2 |
| DEL (lymphoid neoplasm, suspension, top dose 10.24 µM) | 0.994 | > 10.2 |
| JHOS-3 (ovary, adherent, top dose 10.24 µM) | 0.984 | > 10.2 |
| NCI-H2196 (small cell lung carcinoma, adherent, top dose 10.24 µM) | 0.985 | > 10.2 |
| MONO-MAC-6 (acute myeloid leukaemia, suspension, top dose 10.24 µM) | 0.962 | > 10.2 |
| AGS (stomach, adherent, top dose 10.24 µM) | 0.988 | > 10.2 |
| NCI-H720 (lung carcinoid, suspension, top dose 10.24 µM) | 0.959 | > 10.2 |
| NCI-H524 (small cell lung carcinoma, suspension, top dose 10.24 µM) | 0.987 | > 10.2 |
| HCC2218 (breast, suspension, top dose 2.56 µM) | 0.972 | > 2.56 |
| SK-MEL-5 (melanoma, adherent, top dose 10.24 µM) | 0.981 | > 10.2 |
| NY (osteosarcoma, adherent, top dose 10.24 µM) | 0.983 | > 10.2 |
| C-4-I (cervix, adherent, top dose 10.24 µM) | 0.984 | > 10.2 |
| NCI-H69 (small cell lung carcinoma, suspension, top dose 10.24 µM) | 0.985 | > 10.2 |

same assay, conditions: top dose 5 µM; screen: GDSC drug entry 1072; top dose inferred

| Cell Line | AUC | IC50 [µM] |
| --- | --- | --- |
| COR-L321 (lung, suspension) | 0.986 | > 5 |
| PEO1 (ovary, adherent) | 0.983 | > 5 |
| ESO51 (oesophagus, semi-adherent) | 0.87 | > 5 |
| NCI-H929 (myeloma, suspension) | 0.978 | > 5 |
| MM1S (myeloma, suspension) | 0.943 | > 5 |
| UWB1.289 (ovary, adherent) | 0.974 | > 5 |
| CFPAC-1 (pancreas, adherent) | 0.926 | > 5 |
| RH-18 (rhabdomyosarcoma, adherent) | 0.945 | > 5 |
